# Experimental data taken from the BET-seq Pho4 binding data (Le et al. 2018).
# Some of the results follow. Values were computed here from the reads of four pooled replicates and scatter widely.
# Target: T1, Pho4 (S. cerevisiae) (UniProt P07270)
# T1 sequence: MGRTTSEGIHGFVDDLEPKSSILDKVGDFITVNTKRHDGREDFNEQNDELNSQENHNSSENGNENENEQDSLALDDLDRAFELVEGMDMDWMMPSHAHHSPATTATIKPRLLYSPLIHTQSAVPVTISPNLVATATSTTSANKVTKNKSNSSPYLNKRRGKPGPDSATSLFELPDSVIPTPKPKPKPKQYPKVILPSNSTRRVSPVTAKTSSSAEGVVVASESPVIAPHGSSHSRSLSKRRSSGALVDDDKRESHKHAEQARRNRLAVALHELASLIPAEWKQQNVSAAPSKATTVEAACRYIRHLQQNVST
# Assay: relative binding free energy (BET-seq); higher = weaker binding
# Details: reference: library average
row,Sequence,relative binding free energy [kcal/mol]
1,CATGCCACGTGTTGTT,-0.07
2,ATGGGCACGTGTATGG,-0.05
3,TGAGACACGTGCTGTT,-0.07
4,TTCTTCACGTGATGTG,0.3
5,GAAGGCACGTGATAGT,0.03
6,GTTTACACGTGTAATG,0.18
7,ACGTGCACGTGCTTGG,-0.16
8,TGTTTCACGTGTACTC,0.28
9,GTAAGCACGTGGTAGT,-0.22
10,ATTTTCACGTGATTAT,0.3
11,TTGAGCACGTGCGTAT,-0.11
12,TAAGTCACGTGATGTT,0.3
13,CCAGGCACGTGTTTGG,-0.05
14,CGGGTCACGTGGGCTT,0.01
15,GATGTCACGTGGGTAC,0.15
16,CGATGCACGTGTTGAT,-0.03
17,CTAGGCACGTGCATGT,-0.01
18,AGGTTCACGTGGGTGT,0.22
19,ATGAACACGTGTTATA,0.07
20,CGGTTCACGTGTAGCT,0.33
21,TTGGTCACGTGTCCGG,0.2
22,TGCATCACGTGCTTGT,0.2
23,GGGGCCACGTGTTTTG,0.02

row,Sequence,relative binding free energy [kcal/mol]
1,ACGCGCACGTGGAGTG,-0.14
2,TTCAACACGTGGGTAT,-0.18
3,TAGGTCACGTGAGACT,0.34
4,TATTACACGTGCTAGG,0.13
5,TTTGTCACGTGATCGT,0.3
6,TGTGACACGTGGTTCG,0.05
7,CGTGTCACGTGATGGG,0.1
8,GGGCCCACGTGAGGTG,0.09
9,ACGTACACGTGTTGGG,0.06
10,ATGGACACGTGGAGAT,0.12
11,TCTTTCACGTGTGTTG,0.27
12,TCTGGCACGTGAGAGG,0.05
13,ACTTTCACGTGAGTTA,0.45
14,GGAGTCACGTGTAGGA,0.12
15,GTTGGCACGTGTACAG,-0.07
16,TTGTACACGTGGGAGT,0.04
17,TGGTACACGTGTCGTA,-0.04
18,GTTGTCACGTGAGATC,0.32
19,TTGACCACGTGTGGAT,0.07
20,TAGGGCACGTGTTTAG,-0.17
21,GTTTACACGTGTAGTC,0.16
22,GTAAGCACGTGTAGTG,-0.06
23,GGTGGCACGTGCAAGT,-0.13

row,Sequence,relative binding free energy [kcal/mol]
1,ATCGTCACGTGGAGTG,0.11
2,TACTGCACGTGGTAGT,-0.13
3,TGGGCCACGTGTAAGT,-0.02
4,TGGTTCACGTGTTATG,0.26
5,TGATTCACGTGTGCCT,0.26
6,TTTAGCACGTGGCACG,-0.09
7,TAGGGCACGTGGAGTA,-0.18
8,ACATTCACGTGTGGGG,0.32
9,TCATGCACGTGGTATT,-0.12
10,TGCATCACGTGTAAGG,0.23
11,AGAGGCACGTGGATGA,-0.06
12,GGGGTCACGTGTGTCG,0.21
13,AGAAACACGTGGTGTT,-0.04
14,GGACGCACGTGGTGGG,-0.18
15,TTTTCCACGTGTGGTA,0.09
16,TTCTACACGTGTTTAT,0.17
17,TTTATCACGTGATGTT,0.21
18,ATATTCACGTGGTTGT,0.33
19,AAGGGCACGTGGTAGA,-0.27
20,GTTTGCACGTGTATAA,0.19
21,TGAGGCACGTGTGGAT,0.03
22,GTAAGCACGTGCGAGG,-0.14
23,GTTTGCACGTGATTGG,0.18

row,Sequence,relative binding free energy [kcal/mol]
1,TCGGTCACGTGAGATG,0.4
2,TGGTCCACGTGCGTGT,0.02
3,ATGGACACGTGTTGTT,0.1
4,GGGAGCACGTGTTGGC,-0.08
5,GTGCTCACGTGGGCGT,0.06
6,GCGAGCACGTGGTTGT,-0.14
7,GGCGGCACGTGTGGCC,-0.02
8,GTTCTCACGTGTGGGT,0.16
9,GTGTCCACGTGTTATA,0.09
10,AAAGGCACGTGCTTTG,-0.06
11,TATTTCACGTGTTAGG,0.37
12,TGGGGCACGTGTTCTG,-0.14
13,TGGGGCACGTGGTGGC,-0.12
14,GTTTACACGTGGGGCT,-0.1
15,GCTAGCACGTGGAGGG,-0.07
16,TTGCTCACGTGAAGGT,0.21
17,AACGGCACGTGTGATT,0.16
18,GTTAGCACGTGATCGT,0.14
19,GTAATCACGTGTATAG,0.21
20,GGGGTCACGTGGTTTG,0.21
21,TTGAGCACGTGTCTTT,-0.2
22,TATGCCACGTGACGGG,-0.01
23,ATATACACGTGGGTTA,-0.15

row,Sequence,relative binding free energy [kcal/mol]
1,GTATGCACGTGCGTGA,-0.02
2,TGGATCACGTGTACAG,0.25
3,GGGGCCACGTGGCTGG,-0.02
4,AGTGGCACGTGGATGC,-0.07
5,TTAGACACGTGGAGGT,0.01
6,TTTATCACGTGAGGGC,0.23
7,TTTATCACGTGAGTAC,0.38
8,GTAAGCACGTGTTAGG,0.04
9,AGTAGCACGTGGTGCA,-0.31
10,TTAAGCACGTGGGGGT,-0.23
11,ACGGACACGTGGGTAT,-0.06
12,AGAAGCACGTGTAAGG,0.04
13,GGTAGCACGTGTGTAT,0.03
14,AGGGGCACGTGGAAGC,-0.15
15,TGGAGCACGTGAGTTA,0.14
16,TTAGACACGTGCGTGT,-0.16
17,TTAGGCACGTGCTGCA,-0.16
18,GATTTCACGTGTTGAC,0.3
19,GGAAGCACGTGGGTAG,-0.23
20,GTTTACACGTGTGCGG,0.24
21,ATCGCCACGTGTTTGG,-0.01
22,AGGGACACGTGATGTA,0.16
23,CTTGTCACGTGTGTCT,0.13
